# The other results are listed elsewhere or left out.
# Assays:
# Assay in all cases: glycan array binding signal (z-score within array); higher = stronger binding
# Conditions in all cases: glycan notation: IUPAC condensed, linker removed
# [1] = target: GalNAc(b1-6)GalNAc
# Summary of the method: (§1)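 The Consortium for Functional Glycomics database supplied 3228 glycan arrays, of which those lacking an available protein sequence were dropped. The binding signal, a within-array Z-score, was averaged across arrays of the same protein sequence and across linkers. Negative scores can be read as non-binding.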
# [2] = target: Glc(a1-4)Glc
# Summary of the method: as §1
# [3] = target: Glc(a1-4)Glc(a1-4)Glc(a1-4)Glc
# Summary of the method: as §1
# [4] = target: Glc(a1-6)Glc(a1-6)Glc
# Summary of the method: as §1
# [5] = target: Glc(a1-6)Glc(a1-6)Glc(a1-6)Glc
# Summary of the method: as §1
# [6] = target: Glc(b1-4)Glc
# Summary of the method: as §1
# [7] = target: Glc(b1-6)Glc
# Summary of the method: as §1
# [8] = target: GlcA(b1-3)Gal
# Summary of the method: as §1
# [9] = target: GlcA(b1-3)GlcNAc
# Summary of the method: as §1
# [10] = target: GlcA(b1-6)Gal
# Summary of the method: as §1
# [11] = target: GlcNAc(a1-3)Gal(b1-4)GlcNAc
# Summary of the method: as §1
# [12] = target: GlcNAc(a1-4)Gal(b1-3)GlcNAc
# Summary of the method: as §1
# [13] = target: GlcNAc(a1-4)Gal(b1-4)GalNAc
# Summary of the method: as §1
# [14] = target: GlcNAc(a1-4)Gal(b1-4)GlcNAc
# Summary of the method: as §1
# [15] = target: GlcNAc(a1-4)Gal(b1-4)GlcNAc(b1-3)Gal(b1-4)Glc
# Summary of the method: as §1
# [16] = target: GlcNAc(a1-4)Gal(b1-4)GlcNAc(b1-3)Gal(b1-4)GlcNAc
# Summary of the method: as §1
# [17] = target: GlcNAc(a1-4)Gal(b1-4)GlcNAc(b1-3)Gal(b1-4)GlcNAc(b1-3)Gal(b1-4)GlcNAc
# Summary of the method: as §1
# [18] = target: GlcNAc(a1-4)Gal(b1-4)GlcNAc(b1-3)Gal(b1-4)[Fuc(a1-3)]GlcNAc(b1-3)Gal(b1-4)[Fuc(a1-3)]GlcNAc
# Summary of the method: as §1
# [19] = target: GlcNAc(a1-6)Gal(b1-4)GlcNAc
# Summary of the method: as §1
# [20] = target: GlcNAc(b1-2)Gal(b1-3)GalNAc
# Summary of the method: as §1
# [21] = target: GlcNAc(b1-2)Man(a1-3)[GlcNAc(b1-2)Man(a1-6)]Man(b1-4)GlcNAc(b1-4)GlcNAc
# Summary of the method: as §1
# [22] = target: GlcNAc(b1-2)Man(a1-3)[GlcNAc(b1-2)Man(a1-6)]Man(b1-4)GlcNAc(b1-4)[Fuc(a1-6)]GlcNAc
# Summary of the method: as §1
# [23] = target: GlcNAc(b1-2)Man(a1-3)[GlcNAc(b1-4)][GlcNAc(b1-2)Man(a1-6)]Man(b1-4)GlcNAc(b1-4)GlcNAc
# Summary of the method: as §1
# [24] = target: GlcNAc(b1-2)[GlcNAc(b1-4)]Man(a1-3)[GlcNAc(b1-2)Man(a1-6)]Man(b1-4)GlcNAc(b1-4)GlcNAc
# Summary of the method: as §1
# [25] = target: GlcNAc(b1-2)[GlcNAc(b1-4)]Man(a1-3)[GlcNAc(b1-4)][GlcNAc(b1-2)Man(a1-6)]Man(b1-4)GlcNAc(b1-4)GlcNAc
# Summary of the method: as §1
# [26] = target: GlcNAc(b1-2)[GlcNAc(b1-4)]Man(a1-3)[GlcNAc(b1-4)][GlcNAc(b1-2)[GlcNAc(b1-6)]Man(a1-6)]Man(b1-4)GlcNAc(b1-4)GlcNAc
# Summary of the method: as §1
# [27] = target: GlcNAc(b1-2)[GlcNAc(b1-6)]Man(a1-6)[GlcNAc(b1-2)Man(a1-3)]Man(b1-4)GlcNAc(b1-4)GlcNAc
# Summary of the method: as §1
# [28] = target: GlcNAc(b1-2)[GlcNAc(b1-6)]Man(a1-6)[GlcNAc(b1-2)Man(a1-3)][GlcNAc(b1-4)]Man(b1-4)GlcNAc(b1-4)GlcNAc
# Summary of the method: as §1
# [29] = target: GlcNAc(b1-3)Gal
# Summary of the method: as §1
# [30] = target: GlcNAc(b1-3)Gal(b1-3)GalNAc
# Summary of the method: as §1
# [31] = target: GlcNAc(b1-3)Gal(b1-4)Glc
# Summary of the method: as §1
# [32] = target: GlcNAc(b1-3)Gal(b1-4)GlcNAc
# Summary of the method: as §1
# [33] = target: GlcNAc(b1-3)Gal(b1-4)GlcNAc(b1-3)Gal(b1-4)GlcNAc
# Summary of the method: as §1
# [34] = target: GlcNAc(b1-3)GalNAc
# Summary of the method: as §1
# [35] = target: GlcNAc(b1-3)Man
# Summary of the method: as §1
# [36] = target: GlcNAc(b1-3)[GlcNAc(b1-4)][GlcNAc(b1-6)]GlcNAc
# Summary of the method: as §1
# [37] = target: GlcNAc(b1-3)[GlcNAc(b1-6)]Gal(b1-4)GlcNAc
# Summary of the method: as §1
binder,measurement,setting,value
Gal 9 (Canis lupus) (protein) MAFSSSQPPYLSPGVPFSGKIQGGLQDGLKITINGTILYCNGTRFAVNFHSGHSDSDIAFHFNPRFEEGGYVVCNTKQKGSWGSEERKMQMPFQMGNPFELCFMVNSCDFKVTVNGSHFTQYSHRVPFHYVDTLSITGAVQLSYISFQSPGVWQSSSAPITQTVIHTVQTTPGQPFPNPIIPPTAYPTPTYPMPFFTSIPGGLYPSKSIIVSGTVLPGAKRFHINLRSGNDIAFHLNPRFNENTVVRNMQINNSWGSEERSLPRKMPFVQGQSFSVWIMCEGHCFKVAVDGEHLFEYYHRLKNLLAINNMEVAGDVQLTHVQT,glycan array binding signal (z-score),[1],-0.309
same,glycan array binding signal (z-score),[2],-0.327
same,glycan array binding signal (z-score),[3],-0.332
same,glycan array binding signal (z-score),[4],-0.357
same,glycan array binding signal (z-score),[5],-0.32
same,glycan array binding signal (z-score),[6],-0.311
same,glycan array binding signal (z-score),[7],-0.341
same,glycan array binding signal (z-score),[8],-0.332
same,glycan array binding signal (z-score),[9],-0.341
same,glycan array binding signal (z-score),[10],-0.32
same,glycan array binding signal (z-score),[11],-0.032
same,glycan array binding signal (z-score),[12],-0.325
same,glycan array binding signal (z-score),[13],-0.304
same,glycan array binding signal (z-score),[14],-0.312
same,glycan array binding signal (z-score),[15],0.304
same,glycan array binding signal (z-score),[16],0.064
same,glycan array binding signal (z-score),[17],0.084
same,glycan array binding signal (z-score),[18],-0.287
same,glycan array binding signal (z-score),[19],-0.354
same,glycan array binding signal (z-score),[20],-0.336
same,glycan array binding signal (z-score),[21],-0.332
same,glycan array binding signal (z-score),[22],-0.293
same,glycan array binding signal (z-score),[23],-0.354
same,glycan array binding signal (z-score),[24],-0.34
same,glycan array binding signal (z-score),[25],-0.349
same,glycan array binding signal (z-score),[26],-0.328
same,glycan array binding signal (z-score),[27],-0.328
same,glycan array binding signal (z-score),[28],-0.338
same,glycan array binding signal (z-score),[29],-0.357
same,glycan array binding signal (z-score),[30],0.492
same,glycan array binding signal (z-score),[31],0.093
same,glycan array binding signal (z-score),[32],0.268
same,glycan array binding signal (z-score),[33],0.248
same,glycan array binding signal (z-score),[34],-0.352
same,glycan array binding signal (z-score),[35],-0.347
same,glycan array binding signal (z-score),[36],-0.337
same,glycan array binding signal (z-score),[37],-0.356
